# Data as given in PubChem BioAssay (NCATS).
# Inconclusive means that the source gave no clear call. Such entries were picked first, then a sample of the others. For some of these results: No potency is given beside an inconclusive call; the fits are too rough. Activity calls are given as the source filed them. Unless noted, the call rests on the fitted dose curve; in most records, active means well fitted curve in either direction with a large enough effect (not every such curve was filed as active); inconclusive means small, poorly fitted or top-dose-only effect, or another doubt; inactive means flat fitted curve, though single readings scatter.
# Key:
# [1] = AP1 Signaling Pathway (AID 357); details: ME-180 AP-1-bla reporter, EGF-induced, beta-lactamase ratio, 5 h; at 7.69 µM (top of the series) unless noted;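 further: ME-180 reporter cells stimulated with EGF at its EC50 level; top concentration of the series differs between compounds; on the % scale 0 is the no-effect control and ±100 the full control effect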
# Outline: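 Read-out was the 460nm/530nm emission ratio (excitation 405nm) after CCF4 loading for 2.5 hours at room temperature. Cells carried an AP-1-driven beta-lactamase reporter, were stimulated with EC50 EGF plus compound for 5 hours, and AC50 values came from titrations.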
# [2] = Primary qHTS for small molecule stabilizers of the endoplasmic reticulum resident proteome: Secreted ER Calcium Modulated Protein (SERCaMP) assay (AID 1508630; active means well fitted curve in the direction sought with a large enough effect; inconclusive means small, poorly fitted or top-dose-only effect, or another doubt; inactive means no such curve, though single readings can be large; an effect the other way counts as inactive or inconclusive; further: potency means the concentration at half of the fitted maximal effect; on activity change, negative = inhibition: on the % scale 0 is the no-effect control and ±100 the full control effect); details: SH-SY5Y GLuc-SERCaMP (Gaussia luciferase released on ER calcium loss) secretion, thapsigargin, luminescence; activity change, negative = inhibition: at 38.4 µM (top of the series) unless noted
# Outline: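 The SH-SY5Y reporter protocol was run at 3 concentrations up to 38.3 uM (primary) or 11 concentrations (follow-up): 16 h compound, 100 nM thapsigargin for 4 h, then extracellular luciferase luminescence.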
# [3] = NFAT Signaling Pathway (AID 444); details: Jurkat NFAT-bla M1, carbachol, beta-lactamase ratio, 5 h; at 7.69 µM (top of the series) unless noted;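 further: carbachol stimulus at about its EC50 of 1 µM final; on the % scale 0 is the no-effect control and ±100 the full control effect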
# Outline: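 Jurkat cells with NFAT-driven β-lactamase reporter and co-expressed M1 receptor, stimulated with carbachol (final 1 uM, ~EC50), compound titration, 5 h at 37 °C. CCF4 loaded 1 h at RT; 460/530 nm ratio gave %activity and AC50.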
# [4] = Stat Signaling Pathway (AID 446); details: ME-180 SIE beta-lactamase reporter, IL-6 stimulated, 5 h; at 7.69 µM (top of the series) unless noted;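 further: ME-180 cervical cancer cells given 40 pM IL-6 alongside compound; SIE-controlled beta-lactamase reporter measured as 460/530 nm FRET emission ratio; top concentration of the series differs between compounds; on the % scale 0 is the no-effect control and ±100 the full control effect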
# Outline: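 Compound effects on IL-6-induced STAT reporter activity were measured in ME-180 cells. After overnight culture, cells were co-treated with 40 pM IL-6 for 5 hrs before beta-lactamase substrate loading at room temperature.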
# [5] = target: 3',5'-cyclic-AMP phosphodiesterase 4B (Homo sapiens) (UniProt Q07343); assay: qHTS Assay for Inhibitors of PDE-IV (AID 607; active means well fitted activation curve with a large enough effect in the main read-out, with a control signal flat, not every such curve was filed as active; inconclusive means small, poorly fitted or top-dose-only effect, or effect the other way, or a change in a side signal; further: potency means the concentration at half of the fitted maximal effect; on activation (PDE inhibition): % of control where 0% means no effect); details: HEK293 ACTOne CNG channel cells, membrane potential fluorescence; activation (PDE inhibition): at 22.9 µM (top of the series)
# Chain of UniProt Q07343 (Q07343 whole entry, looked up): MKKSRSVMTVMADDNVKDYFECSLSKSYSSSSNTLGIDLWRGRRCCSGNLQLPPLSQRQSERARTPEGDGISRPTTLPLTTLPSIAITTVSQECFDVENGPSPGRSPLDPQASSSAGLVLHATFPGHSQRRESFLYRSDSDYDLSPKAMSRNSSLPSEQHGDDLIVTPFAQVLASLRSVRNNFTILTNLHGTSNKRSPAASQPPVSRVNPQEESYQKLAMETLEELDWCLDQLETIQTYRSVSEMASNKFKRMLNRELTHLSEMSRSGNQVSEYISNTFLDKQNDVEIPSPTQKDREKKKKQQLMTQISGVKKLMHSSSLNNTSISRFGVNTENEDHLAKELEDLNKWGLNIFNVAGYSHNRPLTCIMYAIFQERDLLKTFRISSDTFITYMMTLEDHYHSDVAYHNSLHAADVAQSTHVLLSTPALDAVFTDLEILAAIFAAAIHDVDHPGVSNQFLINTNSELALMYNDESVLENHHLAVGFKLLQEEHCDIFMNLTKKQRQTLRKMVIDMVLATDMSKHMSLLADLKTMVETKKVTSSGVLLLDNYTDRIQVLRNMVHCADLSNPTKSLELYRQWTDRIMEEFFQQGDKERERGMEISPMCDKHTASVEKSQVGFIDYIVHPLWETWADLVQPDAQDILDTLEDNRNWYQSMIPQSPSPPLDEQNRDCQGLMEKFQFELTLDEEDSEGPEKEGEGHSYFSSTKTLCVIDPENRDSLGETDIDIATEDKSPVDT
# Outline: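 ACTOne HEK293 cells carry a modified cAMP-gated CNG channel and express endogenous PDE4; plated 1000 cells/well, compounds up to 22.9 uM final. Membrane-potential dye fluorescence (ex 535/em 590) was read; parental cells received 10 uM forskolin + 100 uM RO 20-1724.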
# [6] = qHTS Assay for Identification of Small Molecule Agonists for Hypoxia Response Element Signaling Pathway (AID 914; active means well fitted activation curve with a large enough effect in the signal ratio, with a control signal flat, not every such curve was filed as active; inconclusive means small, poorly fitted or top-dose-only effect, or effect the other way, or a change in a side signal; the % refers to the signal ratio; further: potency means the concentration at half of the fitted maximal effect; on activation: top concentration of the series differs between compounds; % of control where 0% means no effect); details: ME-180 (cervical carcinoma) HRE-bla reporter, beta-lactamase ratio, CoCl2, 17 h; activation: active compounds read high
# Outline: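 HRE-bla ME-180 cells with beta-lactamase reporter under hypoxia response element, compounds with EC50 CoCl2 for 17 hours at 37 C. CCF4 substrate, 460nm/530nm emission ratio gave %Activity; AC50 from titration series.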
# [7] = target: Cytochrome P450 3A4 (Homo sapiens) (UniProt P08684); assay: qHTS Assay for Inhibitors and Substrates of Cytochrome P450 3A4 (AID 884; active means well fitted curve in the direction sought with a large enough effect; inconclusive means small, poorly fitted or top-dose-only effect, or another doubt; inactive means no such curve, though single readings can be large; an effect the other way counts as inactive or inconclusive; further: potency means the concentration at half of the fitted maximal effect; nearly all actives have a fitted effect of over 50% in size); details: recombinant CYP3A4, Luciferin-PPXE luminescence; activity change, negative = inhibition: at 57.1 µM (top of the series)
# Chain of UniProt P08684 (P08684 whole entry, looked up): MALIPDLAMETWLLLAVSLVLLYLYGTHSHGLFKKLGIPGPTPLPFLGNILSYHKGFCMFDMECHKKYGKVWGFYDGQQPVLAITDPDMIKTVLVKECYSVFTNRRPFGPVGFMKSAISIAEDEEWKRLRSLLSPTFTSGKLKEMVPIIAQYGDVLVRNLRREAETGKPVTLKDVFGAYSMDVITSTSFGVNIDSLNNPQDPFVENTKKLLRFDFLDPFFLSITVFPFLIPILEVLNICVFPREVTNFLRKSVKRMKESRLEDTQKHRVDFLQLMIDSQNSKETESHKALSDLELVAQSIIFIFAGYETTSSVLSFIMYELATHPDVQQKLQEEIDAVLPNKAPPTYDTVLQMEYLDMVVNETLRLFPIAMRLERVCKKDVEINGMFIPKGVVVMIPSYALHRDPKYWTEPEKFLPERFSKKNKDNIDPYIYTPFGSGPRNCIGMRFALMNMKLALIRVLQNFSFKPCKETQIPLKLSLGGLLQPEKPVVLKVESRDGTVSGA
# Outline: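 Luminescent readout of luciferin produced by CYP3A4 (20 nM) dealkylation of Luciferin-PPXE, 25 uM (its KM). NADPH-driven reaction ran 60 min at RT after 10 min compound preincubation; data scaled to 57 uM ketoconazole as 100% inhibition.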
# [8] = target: Ubiquitin carboxyl-terminal hydrolase 1 (Homo sapiens) (UniProt O94782); assay: Inhibitors of USP1/UAF1: Pilot qHTS (AID 504865; active means well fitted curve in the direction sought with a large enough effect; inconclusive means small, poorly fitted or top-dose-only effect, or another doubt; inactive means no such curve, though single readings can be large; an effect the other way counts as inactive or inconclusive; further: potency means the concentration at half of the fitted maximal effect;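 further: rhodamine fluorescence freed from ubiquitin-rhodamine substrate followed over time; nearly all actives have a fitted effect of over 35% in size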); details: purified USP1/UAF1, Ub-rhodamine cleavage fluorescence; series mostly up to 54.9 µM
# Chain of UniProt O94782 (O94782 whole entry, looked up): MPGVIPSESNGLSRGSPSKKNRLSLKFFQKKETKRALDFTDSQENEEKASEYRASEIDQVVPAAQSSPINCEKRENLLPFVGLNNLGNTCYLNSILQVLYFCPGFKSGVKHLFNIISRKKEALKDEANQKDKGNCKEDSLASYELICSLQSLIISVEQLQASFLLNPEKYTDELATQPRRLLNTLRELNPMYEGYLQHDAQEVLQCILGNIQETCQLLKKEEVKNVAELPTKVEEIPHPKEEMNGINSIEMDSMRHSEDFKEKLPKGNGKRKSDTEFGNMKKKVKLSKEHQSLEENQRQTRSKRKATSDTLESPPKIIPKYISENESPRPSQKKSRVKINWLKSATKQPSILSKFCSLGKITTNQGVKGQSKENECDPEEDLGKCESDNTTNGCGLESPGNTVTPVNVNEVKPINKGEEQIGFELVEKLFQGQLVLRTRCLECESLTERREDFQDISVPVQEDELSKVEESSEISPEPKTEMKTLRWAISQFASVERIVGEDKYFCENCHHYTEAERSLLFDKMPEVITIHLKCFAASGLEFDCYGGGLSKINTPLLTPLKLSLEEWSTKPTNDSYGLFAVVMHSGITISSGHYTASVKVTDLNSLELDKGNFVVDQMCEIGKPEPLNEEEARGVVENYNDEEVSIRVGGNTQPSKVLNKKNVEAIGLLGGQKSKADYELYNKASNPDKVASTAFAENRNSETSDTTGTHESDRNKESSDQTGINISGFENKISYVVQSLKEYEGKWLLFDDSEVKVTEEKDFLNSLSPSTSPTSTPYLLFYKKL
# Outline: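 USP1/UAF1 complex (1nM) preincubated with compound 15 min at room temperature, then Ub-Rho substrate (150nM final) added. Fluorescence read kinetically at 480/540 nm, 6 reads every 60 seconds. Buffer: 50mM HEPES pH 7.8, 0.5mM EDTA, 0.1 mg/ml BSA, 1mM TCEP, 0.01% Tween-20.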
# [9] = target: Glucocorticoid receptor (Homo sapiens) (UniProt P04150); assay: GR-EFC Redistribution (AID 451; calls by dose curve; further: potency means the concentration at half of the fitted maximal effect); details: CHO-K1 GR-EFC translocation, beta-gal luminescence, 2 h
# Chain of UniProt P04150 (P04150 whole entry, looked up, the tested form may be a part): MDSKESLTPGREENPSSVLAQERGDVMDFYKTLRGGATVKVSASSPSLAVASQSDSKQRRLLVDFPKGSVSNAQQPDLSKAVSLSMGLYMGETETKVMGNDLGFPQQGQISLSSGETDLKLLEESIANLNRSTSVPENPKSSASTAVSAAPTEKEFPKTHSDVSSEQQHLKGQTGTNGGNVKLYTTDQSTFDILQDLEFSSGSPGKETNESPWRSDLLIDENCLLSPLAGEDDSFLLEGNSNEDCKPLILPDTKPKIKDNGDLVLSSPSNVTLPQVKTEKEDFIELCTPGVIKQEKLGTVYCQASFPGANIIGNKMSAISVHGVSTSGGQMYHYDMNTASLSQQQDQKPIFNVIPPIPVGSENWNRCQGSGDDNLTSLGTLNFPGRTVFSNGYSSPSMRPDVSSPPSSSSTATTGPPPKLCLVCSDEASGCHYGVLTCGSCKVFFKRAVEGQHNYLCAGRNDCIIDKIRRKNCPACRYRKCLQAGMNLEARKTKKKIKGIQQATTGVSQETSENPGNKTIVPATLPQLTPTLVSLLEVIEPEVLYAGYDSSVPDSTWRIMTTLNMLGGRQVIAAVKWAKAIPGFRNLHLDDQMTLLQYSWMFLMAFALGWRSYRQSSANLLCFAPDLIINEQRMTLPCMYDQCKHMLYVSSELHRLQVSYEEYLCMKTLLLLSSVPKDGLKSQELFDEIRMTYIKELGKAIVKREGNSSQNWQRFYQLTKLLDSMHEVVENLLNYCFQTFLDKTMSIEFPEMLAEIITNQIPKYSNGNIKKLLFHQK
# Outline: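 CHO-K1 cells expressing nuclear EA and GR-ED fragments of b-gal; compounds titrated up to 46 uM final, 2 h at 37 C. GR nuclear translocation read as complemented b-gal luminescence after 1 h RT detection.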
# [10] = target: Mitogen-activated protein kinase 10 (Mus musculus) (UniProt Q61831); assay: JNK3 AlphaScreen Assay (AID 530); details: JNK3 lysate, c-Jun phosphorylation; activity change, negative = inhibition: at 57.1 µM (top of the series);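 further: kinase came from lysate of stimulated human HepG2 cells; signal reports phosphorylation of biotinylated GST-cJun 1-79 at Ser73 with 10 µM ATP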; further: potency means the concentration at half of the fitted maximal effect
# Outline: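 HepG2 lysate (IL-1b/TNFa pre-activated) + biotin-GST-cJun 1-79 + anti-pSer73 cJun; cpd titration, 15 min RT; ATP 10 uM start; Tris pH 7.6, MgCl2, DTT, vanadate; beads in EDTA buffer; AlphaScreen.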
# [11] = target: Cytochrome P450 2C19 (Homo sapiens) (UniProt P33261); assay: qHTS Assay for Inhibitors and Substrates of Cytochrome P450 2C19 (AID 899; active means well fitted curve in the direction sought with a large enough effect; inconclusive means small, poorly fitted or top-dose-only effect, or another doubt; inactive means no such curve, though single readings can be large; an effect the other way counts as inactive or inconclusive; further: top concentration of the series differs between compounds; on the % scale 0 is the no-effect control and ±100 the full control effect; nearly all actives have a fitted effect of over 60% in size); details: recombinant CYP2C19, luciferin-H EGE luminescence; series mostly up to 57.1 µM
# Chain of UniProt P33261 (P33261 whole entry, looked up): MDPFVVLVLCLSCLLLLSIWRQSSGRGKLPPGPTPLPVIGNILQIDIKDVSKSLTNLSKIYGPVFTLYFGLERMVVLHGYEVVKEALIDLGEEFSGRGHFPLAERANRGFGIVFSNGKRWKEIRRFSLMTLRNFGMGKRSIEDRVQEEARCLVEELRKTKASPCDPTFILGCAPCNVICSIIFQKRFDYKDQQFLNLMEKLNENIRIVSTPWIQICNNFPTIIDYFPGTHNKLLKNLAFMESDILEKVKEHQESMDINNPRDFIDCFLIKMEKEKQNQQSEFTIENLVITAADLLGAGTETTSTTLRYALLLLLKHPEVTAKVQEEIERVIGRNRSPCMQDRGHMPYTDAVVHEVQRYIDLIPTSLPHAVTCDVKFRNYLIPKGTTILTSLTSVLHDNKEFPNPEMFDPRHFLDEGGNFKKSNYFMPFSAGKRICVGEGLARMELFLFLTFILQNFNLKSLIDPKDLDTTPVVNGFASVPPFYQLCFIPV
# Outline: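 Luminescent read-out of luciferin formed from Luciferin-H EGE (10uM, equal to KM). Enzyme 5nM in 50mM KPO4; compound added, 10 min at 37C, then NADPH regenerating system for 60 min at 37C. Full inhibition defined by 57uM ketoconazole.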
# Tags describe the fitted curve by direction and shape or compound fluorescence and quenching.
smiles,measurement,setting,value
N#CCCn1c(=O)c(-c2ccc(F)cc2)nc2cnc(OCc3ccccc3)nc21,"activity change, negative = inhibition",[1],inconclusive: -34.4% [inhibitor]
same,Potency,[2],"inconclusive [inhibitor, single point]"
COc1ccc(-c2nc3cnc(N4CCNCC4)nc3n(CCC#N)c2=O)cc1,"activity change, negative = inhibition",[1],inconclusive: 87.9% [activator]
same,"activity change, negative = inhibition",[3],inconclusive: 112% [activator]
same,"activity, negative = inhibition",[4],inconclusive: 144% [activator]
same,Potency,[5],inactive
same,Potency,[6],active: 3.16 µM
same,Potency,[2],inactive
COCCNc1nc(-c2cccc(OC)c2)nc2ccccc12,"activity change, negative = inhibition",[1],inactive: -3.79%
same,Potency,[5],"inconclusive [activator, partial curve]"
same,Potency,[7],active: 5.01 µM
same,activation,[6],inconclusive: 53.9%
same,Potency,[8],"inconclusive [inhibitor, partial curve, poor fit]"
same,Potency,[2],"inconclusive [inhibitor, single point]"
CN1CCN(c2ncc3nc(-c4ccccc4)c(=O)n(C4CC4)c3n2)CC1,"activity change, negative = inhibition",[1],inconclusive: 34.2% [activator]
same,"activity, negative = inhibition",[4],inconclusive: 59.9% [activator]
same,Potency,[6],active: 3.98 µM
same,Potency,[2],"inconclusive [inhibitor, single point]"
COCCn1c(=O)c(CCc2ccccc2)nc2cnc(Oc3cccc(Cl)c3)nc21,"activity change, negative = inhibition",[1],inconclusive: -43% [inhibitor]
same,Potency,[9],inactive: > 46 µM
same,Potency,[10],"inconclusive [activator, single point]"
same,Potency,[5],"inconclusive [activator, single point]"
same,Potency,[2],"inconclusive [inhibitor, single point]"
COc1ccc(-n2c(=O)c(-c3ccc(F)cc3)nc3cnc(N4CCOCC4)nc32)cc1,"activity change, negative = inhibition",[1],inconclusive: 38.1% [activator]
same,"activity, negative = inhibition",[4],inconclusive: 93.5% [activator]
same,Potency,[6],active: 3.16 µM
same,Potency,[8],inactive
same,Potency,[2],inactive
Clc1ccccc1-c1cncnc1NCCN1CCOCC1,"activity change, negative = inhibition",[1],inconclusive: 62.5% [activator]
same,"activity change, negative = inhibition",[3],inconclusive: -105% [inhibitor]
same,Potency,[5],inactive
same,Potency,[6],active: 3.16 µM
same,Potency,[2],"inconclusive [inhibitor, single point]"
COc1ccccc1-c1ccc2ncnc(Nc3ccccc3)c2c1,"activity change, negative = inhibition",[1],inconclusive: -76% [inhibitor]
same,Potency,[5],"inconclusive [rising, partial curve]"
same,Potency,[8],inactive
same,Potency,[2],"inconclusive [inhibitor, single point]"
COc1cccc(-c2ccc3ncnc(Nc4ccccc4)c3c2)c1,"activity change, negative = inhibition",[1],inconclusive: -122% [inhibitor]
same,"activity change, negative = inhibition",[3],inconclusive: 46.6% [activator]
same,Potency,[5],"inconclusive [rising, partial curve]"
same,Potency,[2],"inconclusive [inhibitor, single point]"
COCCn1c(=O)c(-c2ccc(F)cc2)nc2cnc(Oc3ccccc3)nc21,"activity change, negative = inhibition",[1],inconclusive: -30.6% [inhibitor]
same,"activity, negative = inhibition",[4],inactive: -9.94%
same,Potency,[8],inactive
same,Potency,[2],"inconclusive [inhibitor, single point]"
COc1cccc(Nc2ncc3ncc(=O)n(C)c3n2)c1,"activity change, negative = inhibition",[1],inconclusive: -31.3% [inhibitor]
same,Potency,[10],"inconclusive [inhibitor, partial curve]"
same,Potency,[11],inactive
same,Potency,[2],"inconclusive [inhibitor, single point]"
O=C(c1cc(C(F)(F)F)cc(C(F)(F)F)c1)N1CCC2(CC1)CCN(c1ncccn1)CC2,"activity change, negative = inhibition",[1],inactive: -11.6%
same,Potency,[10],inactive
same,activation,[6],inactive: 1.37%
same,Potency,[2],"inconclusive [inhibitor, single point]"
FC(F)(F)c1ccccc1-c1ccc2ncnc(NCCN3CCOCC3)c2c1,"activity change, negative = inhibition",[1],inconclusive: 33.2% [activator]
same,Potency,[5],"inconclusive [activator, partial curve]"
same,activation,[6],inactive: -0.346%
same,Potency,[2],"inconclusive [inhibitor, single point]"
Cc1noc(C)c1C(=O)N1CCC[C@@]2(CCN(C(=O)NC(C)C)C2)C1,"activity change, negative = inhibition",[1],inactive: -0.0457%
same,"activity, negative = inhibition",[4],inactive: -12.3%
same,Potency,[2],inactive
O=c1cnc2cnc(Oc3ccccc3)nc2n1Cc1cccs1,"activity change, negative = inhibition",[1],inconclusive: -39.8% [inhibitor]
same,"activity change, negative = inhibition",[3],inactive: -1.41%
same,Potency,[5],"inconclusive [activator, single point]"
same,Potency,[2],"inconclusive [inhibitor, single point]"
